Assay results as given in US20160222087A1 (NOVOZYMES BIOPHARMA DK A S, published 2016).

Legend:
[1] = target: T1, shFcRn-HIS (shFcRn with a 6-His tail on the C-terminus of beta-2-microglobulin) (human, UniProt P55899 part only; P61769 part only); assay: SPR (Biacore 3000), albumin over immobilized shFcRn-HIS, pH 5.5, 25 C; second row for this variant
[2] = target: T1, shFcRn-HIS (shFcRn with a 6-His tail on …); assay: SPR (Biacore 3000), albumin over immobilized shFcRn-HIS, pH 5.5, 25 C

T1 sequence (P55899 24-290 limits assumed, chain 1 of 2): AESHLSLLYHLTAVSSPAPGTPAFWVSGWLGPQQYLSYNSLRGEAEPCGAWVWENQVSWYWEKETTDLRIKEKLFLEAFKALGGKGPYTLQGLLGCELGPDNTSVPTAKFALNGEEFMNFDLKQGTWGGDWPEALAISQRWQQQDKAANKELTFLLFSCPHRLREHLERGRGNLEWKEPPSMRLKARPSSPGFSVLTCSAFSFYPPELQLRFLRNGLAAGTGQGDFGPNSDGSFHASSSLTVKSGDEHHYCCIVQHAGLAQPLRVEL
T1 sequence (P61769 other isoform, or with tags, fused parts or gaps limits assumed, chain 2 of 2, further chain): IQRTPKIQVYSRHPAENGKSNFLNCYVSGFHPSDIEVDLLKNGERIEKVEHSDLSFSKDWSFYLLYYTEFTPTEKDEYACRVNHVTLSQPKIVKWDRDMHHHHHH

| Binder | Fold difference relative to WT HSA [1] [fold] | Fold difference relative to WT HSA [2] [fold] |
| --- | --- | --- |
| HSA L345E (ligand) not shown | 1 | 1.1 |
| HSA L349F (ligand) not shown | 4.3 | 4.3 |
| HSA S342Y (ligand) not shown | 1.8 | 1.9 |
| HSA V381G (ligand) not shown | 2.2 | 1.6 |
